# PubChem BioAssay AID463173 (ICCB-Longwood Screening Facility, Harvard Medical School, 2010)
# In all, about 52,000 compounds went through this assay and about 1,700 (3.3%) were called active. Cut-off read from the data, not from the text of the source: active = survival mostly below about 52% (no sharp cut-off); inactive = mostly above about 56%. The list shows a part of the results.
# Test system: Wild type
# Assay: growth inhibition of S. aureus wild type versus tarO mutant, primary screen, teichoic acid synthesis inhibitors, RN4220, OD600 (AID 463173)
# Settings: S. aureus RN4220 wild type/DeltatarO growth, OD600, 18 h, stronger effect = lower value, screened at 18.75 µg/mL (by protocol)
row,Structure (SMILES),survival
1,CCCN1C(=O)c2[nH]nc(-c3ccccc3O)c2C1c1cccc(OCc2ccccc2)c1 (stereo not given),inactive: 42%
2,CCOc1ccccc1NC(=O)CSc1nnc(N)s1,inactive: 94%
3,Cc1ccc(NC(=O)CSc2nnc(C)n3c2cc2sccc23)c(C)c1,inactive: 84%
4,COc1cccc(NC(=O)CSc2nc3c([nH]c4ccccc43)c(=O)n2-c2ccccc2)c1,inactive: 67%
5,CC(C)(C)NC(=O)c1cnn(-c2ccccc2)c1C1CCN(C(=O)OC(C)(C)C)CC1,inactive: 74%
6,Cc1ccc(CSc2ccc(-c3cccs3)nn2)cc1,inactive: 90%
7,O=C(Cn1ncc2c3ccccc3n(Cc3ccccc3F)c2c1=O)NC1CCCCCC1,inactive: 89%
8,O=C(NCc1ccccc1Cl)c1cc2c(s1)-c1ccccc1SC2,inactive: 74%
9,COCCNC(=O)C(=O)NCC(c1cccnc1)N1CCN(c2ccccc2OC)CC1 (stereo not given),inactive: 92%
10,COc1cc(C(=O)NCC(c2cccnc2)N2CCc3ccccc3C2)cc(OC)c1OC (stereo not given),inactive: 80%
11,CCC(=O)Nc1ccccc1-c1nc2ccccc2n(CC(=O)c2ccc(C)c(C)c2)c1=O,inactive: 64%
12,O=S(=O)(Nc1cccc(-c2ccc(N3CCCCCC3)nn2)c1)c1ccccc1F,inactive: 57%
13,CC1(C)CC(=O)C(C=NCCCN2CCCC2=O)=C(O)C1,inactive: 85%
14,O=C(CN1C(=O)COc2ccc(S(=O)(=O)N3CCOCC3)cc21)N1CCN(c2cccc(C(F)(F)F)c2)CC1,inactive: 91%
15,Cc1oc2ncn(C)c(=O)c2c1C(=O)Nc1ccccn1,inactive: 90%
16,CCc1nc2sc3c(N4CCC(C)CC4)ncnc3c2c2c1CCCC2,inactive: 123%
17,Cc1ccc(CN(C(=O)COc2ccc(Cl)c(C)c2)c2ccccn2)o1,inactive: 78%
18,CN(C)S(=O)(=O)c1ccc(C(=O)NCCS(=O)(=O)N2CCN(c3ccccc3)CC2)cc1,inactive: 73%
19,Cc1nc2nc(SCc3c(F)cccc3Cl)nn2c(C)c1Cc1ccccc1,inactive: 53%
20,Cc1ccc(-c2cc(-c3ccc4c(c3)NC(=O)CO4)nc3c2COc2ccc(C)cc2-3)cc1,inactive: 73%
21,COc1cc(C2c3c(-c4c(C)cc(C)cc4O)n[nH]c3C(=O)N2CCO)cc(OC)c1OC (stereo not given),inactive: 101%
22,COc1ccc(OC)c(CNC(=O)c2cc3cc4ccc(OC)cc4nc3o2)c1,inactive: 90%
23,Cc1cc(NC(=O)c2ccccc2Cl)ccc1NC(=O)c1ccccc1,inactive: 85%

row,Structure (SMILES),survival
1,COc1ccc(-c2noc(COc3cc(C)c(Br)c(C)c3)n2)cc1OC,inactive: 80%
2,Cc1cc(-n2c(C)nc3ccccc3c2=O)ccc1NC(=O)c1ccc(C)c([N+](=O)[O-])c1,active: 10%
3,Cc1ccc(C(=O)/C=C/c2cn(CC(O)CN3CCc4ccccc43)c3ccccc23)cc1 (stereo not given),inactive: 76%
4,O=C(Nn1cnnc1)c1cccc(C(=O)Nn2cnnc2)c1,inactive: 111%
5,CCOc1cc2sc(N3CCC(C(=O)Nc4ccccc4Cl)CC3)nc2cc1Br,inactive: 73%
6,Cc1ccc(CN2CCC(CNC(=O)c3cc4ccc5cccnc5c4[nH]3)CC2)cc1,inactive: 113%
7,Cc1cc(S(=O)(=O)C(CNC(=O)COc2ccccc2)c2cccs2)ccc1F (stereo not given),inactive: 153%
8,Cc1ccc(-c2nn(CC(=O)NC3CCCC3)c3c2cnc2ccc(F)cc23)cc1C,inactive: 74%
9,O=C(Nc1ccc2nc(SCc3ccccc3)sc2c1)c1cccc(F)c1,inactive: 89%
10,COc1ccc(NC(=O)CCN2CCN(CCO)CC2)c(OC)c1,inactive: 69%
11,COc1ccc(Oc2nc3c(c(=O)n(C)c(=O)n3C)n2Cc2ccccc2Cl)cc1,inactive: 75%
12,COc1ccccc1Cn1cc(C(=O)c2ccc(Cl)cc2)c(=O)c2cc3c(cc21)OCCO3,inactive: 92%
13,CCN(CC)C(=O)CSc1nnc(-c2ccc(OC)cc2)n1CCOC,inactive: 107%
14,COc1ccc(OCCSc2nc(C)c(Cc3ccccc3)c(=O)[nH]2)cc1,inactive: 84%
15,CC(C(=O)Nc1ccc(F)c(Cl)c1)N1Cc2ccccc2C1=O (stereo not given),active: 0%
16,COc1ccc(-c2noc(N3CCN(c4cccc(Cl)c4)CC3)n2)cc1OC,inactive: 73%
17,Cc1cc(OCC(=O)Nc2cc(-c3nc4ccccc4[nH]3)ccc2C)ccc1Cl,inactive: 69%
18,CCSc1oc(-c2ccc(F)cc2)nc1S(=O)(=O)c1ccc(C)cc1,inactive: 41%
19,CN1CCN(C(=O)c2ccc3c(c2)N(Cc2c(F)cccc2Cl)C(=O)c2ccccc2S3)CC1,inactive: 95%
20,CCc1sc(Nc2ccc(Cl)cc2)nc1-c1cc2cccc(OC)c2oc1=O,inactive: 84%
21,CCOc1cc(C(=O)Nc2nnc3n2CCS3)cc(OCC)c1OCC,inactive: 66%
22,COc1ccccc1CNC(=O)COc1cc(=O)n(C)c2ccccc12,inactive: 66%
23,CCOC(=O)c1cc2occc2n1C(C)C(=O)OCC (stereo not given),inactive: 95%

row,Structure (SMILES),survival
1,Cc1ccccc1C(=O)Nc1nnc(SCc2cc(=O)n3ccccc3n2)s1,inactive: 55%
2,CCOc1ccc(C(=O)CSc2nnc3cc(C)c4ccccc4n23)cc1,inactive: 85%
3,CC(C)(C)c1ccc(C(=O)NCC(c2cccs2)S(=O)(=O)c2ccc(F)cc2)cc1 (stereo not given),inactive: 138%
4,Cc1ccc(N(CC(=O)NCC(C)c2ccccc2)S(=O)(=O)N(C)C)cc1 (stereo not given),inactive: 63%
5,CC(=O)c1cccc(S(=O)(=O)N2CCN(c3ccccc3F)CC2)c1,inactive: 89%
6,CCCCC(CC)CNC(=O)c1ccc2c(=O)n(CCOC)c(=O)[nH]c2c1 (stereo not given),inactive: 134%
7,COc1cc(Cl)c(C)cc1Nc1nc2ccccc2nc1NS(=O)(=O)c1ccccc1,inactive: 127%
8,Cc1ccc(N2CCN(C(=O)NCc3noc4ccccc34)CC2C)cc1 (stereo not given),inactive: 84%
9,Cc1cccc(C(=O)Nc2ccc(-c3nc4cc(C(C)C)ccc4o3)cc2)c1,inactive: 47%
10,COc1ccccc1N1CCN(C(=O)c2cnn(-c3ccc(C)c(C)c3)c2C2CCN(C(=O)OC(C)(C)C)CC2)CC1,inactive: 99%
11,O=C(CCCN1CCOCC1)c1ccc2c(c1)OCCO2,inactive: 106%
12,COc1ccc(S(=O)(=O)n2nc(C)c(S(=O)(=O)N3CCCCCC3)c2C)cc1OC,active: 1%
13,CCOC(=O)c1ccc(NC(=O)C2CCN(C(=O)N3CC(C)Oc4ccc(C)cc43)CC2)cc1 (stereo not given),inactive: 60%
14,CCCOc1ccc(C(=O)N(Cc2cccs2)c2ccc(C)cc2)cc1,inactive: 101%
15,CCOC(=O)c1c(C)oc2ncnc(NCCCN3CCN(c4cc(C)ccc4C)CC3)c12,inactive: 70%
16,COc1ccc(-c2c3c(nc4sc(C(=O)Nc5ccc(F)cc5)c(N)c24)CC(C)(C)CC3=O)cc1,inactive: 84%
17,Cc1nnc2c(Nc3ccccc3I)nc3nonc3n12,inactive: 108%
18,Cc1ccccc1-c1nc(C(N)=O)c2c(n1)n(-c1ccc3c(c1)OCO3)c(=O)n2C,inactive: 76%
19,O=S(=O)(NCCc1csc2nc(-c3ccc(Cl)cc3)nn12)c1ccc(Oc2ccccc2)cc1,inactive: 69%
20,CC(=O)c1cccc(NC(=O)CSc2nnc3ccc(-c4ccc(C)cc4)nn23)c1,inactive: 85%
21,CN(C)S(=O)(=O)c1ccc2c(c1)N(CC(=O)NCc1cccc(Br)c1)C(=O)CS2,inactive: 77%
22,O=C(NCc1ccco1)C1CCN(C(=O)N2CCOc3ccc(Cl)cc32)CC1,inactive: 94%
23,O=C1CC(c2nnc(Cc3ccc(Cl)cc3)o2)CN1c1ccccc1 (stereo not given),inactive: 103%

row,Structure (SMILES),survival
1,CCn1c(=N)c(C(=O)NC2CCCCC2)cc2c(=O)n3cccc(C)c3nc21,inactive: 125%
2,O=c1cc2nc(-c3cccs3)nc(SCCOc3ccc(Cl)cc3)n2[nH]1,inactive: 77%
3,COc1ccccc1-c1nnc2n(CCc3ccccc3)c(=O)c3ccccc3n12,inactive: 67%
4,Cc1ccc(-c2nnc(NC(=O)c3ccc4c(c3)OCCO4)o2)c(C)c1,inactive: 72%
5,Cc1ccc(C)c(Cn2c(=O)n(Cc3ccc(C(=O)NC4CCN(Cc5ccccc5)CC4)cc3)c(=O)c3ccccc32)c1,inactive: 77%
6,COc1cccc(-n2cc(C(=O)Oc3cccc(C(F)(F)F)c3)c3ccccc3c2=O)c1,inactive: 136%
7,Cc1ccc(O)c(NC(=O)c2noc3c2CCCCC3)c1,inactive: 70%
8,CC(=O)N1c2ccccc2CC1C(=O)N1CCN(c2cccc(Cl)c2)CC1 (stereo not given),inactive: 77%
9,O=C(CC1C(=O)N(c2ccc(F)cc2)C(=O)N1Cc1ccc2c(c1)OCO2)Nc1ccc(F)cc1 (stereo not given),inactive: 72%
10,CCOc1ccc(OCC)c(NC(=O)C(NS(=O)(=O)c2ccc(Br)s2)c2ccccc2)c1 (stereo not given),inactive: 89%
11,COc1cccc(CNC(=O)CN2C(=O)CCCc3ccccc32)c1OC,inactive: 135%
12,CCN(c1ncnc2c1cnn2-c1cc(Cl)ccc1C)C1CCCCC1,inactive: 80%
13,CCc1ccc(NC(=O)c2ccc3oc(=O)n(Cc4ccccc4)c3c2)cc1,active: 1%
14,Nc1c(-c2nc(-c3cccs3)no2)nnn1-c1cccc(F)c1,inactive: 95%
15,Cc1ccc(C)c(CN2C(=O)c3ccccc3S(=O)(=O)c3ccc(C(=O)N4CCCC4)cc32)c1,inactive: 82%
16,CCc1c(C)nc2c(OC)cccc2c1Cl,inactive: 113%
17,CCc1sc(Nc2ccc(C)cc2Br)nc1-c1cc2cccc(OC)c2oc1=O,inactive: 68%
18,CC(=O)NCCNc1nc2c(-c3ccc(C)cc3)nnn2c2ccccc12,inactive: 82%
19,CCOC(=O)CSc1nc2c(sc3ccccc32)c(=O)n1Cc1ccc(C)cc1,inactive: 80%
20,CNC(=O)C1CCN(Cc2cc3ccccc3n2Cc2ccccc2C)CC1,inactive: 77%
21,CCCN(CCC)C(=O)Cn1c(=O)n(-c2ccc(C)cc2)c(=O)c2ccc(C(=O)NCc3ccccc3Cl)cc21,inactive: 86%
